Measurements reported in patent publication US11000038B2, “Pyridone compounds and agricultural and horticultural fungicides containing the same as active ingredients” (priority 2017, dated 2021).

Legend:
[1] = system: barley powdery mildew fungi (Blumeria graminis f. sp. hordei); experiment: Test Example D: barley powdery mildew, spray treatment of barley plants; settings: for Test D control value: barley powdery mildew; for Test D control value class (barley powdery mildew): control value=100{1-(n/3)}
[2] = system: gray mold fungi (Botrytis cinerea); experiment: Test Example B: tomato gray mold, spray treatment of tomato plants; settings: for Test B control value: tomato gray mold; for Test B control value class (tomato gray mold): control value=100{1-(n/3)}
[3] = system: wheat brown rust fungi (Puccinia recondita); experiment: Test Example E: wheat brown rust, spray treatment of wheat plants; assay type: in vivo; settings: for Test E control value: wheat brown rust; for Test E control value class (wheat brown rust): control value=100{1-(n/3)}
[4] = system: grape downy mildew fungus (Plasmopara viticola); experiment: Test Example G: grape downy mildew, spray treatment of grape plants; settings: for Test G control value: grape downy mildew, 7 to 10 days after inoculation; for Test G control value class (grape downy mildew): 2.5 ml/pot, grape Neomuscat, 7 to 10 days from inoculation
[5] = system: cabbage Alternaria sooty spot fungi (Alternaia brassicicola); experiment: Test Example C: cabbage Alternaria sooty spot, spray treatment of cabbage plants; assay type: in vivo; settings: for Test C control value: cabbage Alternaria sooty spot; for Test C control value class (cabbage Alternaria sooty spot): control value=100{1-(n/3)}
Source text: [Test Example C] Cabbage Alternaria Sooty Spot
Test plants (cabbage variety: Shikidori) were cultivated until the cotyledons extended after the sowing of seeds.
<Control Value> Control value=100{1−(n/3)}

[6] = spray treatment of barley plants
[7] = spray treatment of tomato plants
[8] = spray treatment of wheat plants
[9] = spray treatment of cabbage plants

| SMILES | Test D control value class (barley powdery mildew) [1, 6] | Test B control value class (tomato gray mold) [2, 7] | Test E control value class (wheat brown rust) [3, 8] | Test G control value class (grape downy mildew) ([4]; 250 ppm spray) | Test C control value class (cabbage Alternaria sooty spot) [5, 9] | Test D control value ([1]; spray treatment) | Test B control value ([2]; spray treatment) | Test E control value ([3]; spray treatment) | Test G control value ([4]; 250 ppm spray) | Test C control value ([5]; spray treatment) | further results |
| --- | --- | --- | --- | --- | --- | --- | --- | --- | --- | --- | --- |
| COCCOc1ccc(C)c(-n2cc(Br)c(=O)c(Cl)c2-c2c(F)cc(F)cc2F)c1 [Compound 282] |  |  |  |  |  |  |  |  |  |  | Test D control value [1, 6]: H (H shows the control value of more than 50%); Test B control value [2, 7]: H (H shows the control value of more than 50%); Test E control value [3, 8]: H (H shows the control value of more than 50%); Test G control value ([4]; 250 ppm spray (2.5 ml/pot)): H (H shows the control value of more than 50%); Test C control value [5, 9]: L (L shows the control value of 50% or less) |
| CC(C)n1cc(Br)c(=O)c(Br)c1-c1c(F)cc(F)cc1F [Compound 12] | L (L shows the control value of 50% or less) | H (H shows the control value of more than 50%) | H (H shows the control value of more than 50%) | L (L shows the control value of 50% or less) | H (H shows the control value of more than 50%) |  |  |  |  |  |  |
| O=c1c(Cl)cn(-c2ccccc2Br)c(-c2c(F)cc(F)cc2F)c1Br [Compound 46] | H (H shows the control value of more than 50%) | H (H shows the control value of more than 50%) | H (H shows the control value of more than 50%) | H (H shows the control value of more than 50%) | H (H shows the control value of more than 50%) |  |  |  |  |  |  |
| CCc1c(-c2c(F)cccc2F)n(-c2cccc(Cl)c2C)cc(C)c1=O [Compound 525] |  |  |  |  |  | H (H shows the control value of more than 50%) | H (H shows the control value of more than 50%) | H (H shows the control value of more than 50%) | L (L shows the control value of 50% or less) | H (H shows the control value of more than 50%) |  |
| COc1cc(-n2cc(Br)c(=O)c(Cl)c2-c2c(F)cccc2F)c(C)cc1Br [Compound 391] |  |  |  |  |  | L (L shows the control value of 50% or less) | H (H shows the control value of more than 50%) | H (H shows the control value of more than 50%) | H (H shows the control value of more than 50%) | H (H shows the control value of more than 50%) |  |
| O=c1c(Br)cn(CC2CCCCC2)c(-c2c(F)cc(F)cc2F)c1Cl [Compound 124] | L (L shows the control value of 50% or less) | L (L shows the control value of 50% or less) | L (L shows the control value of 50% or less) | L (L shows the control value of 50% or less) | H (H shows the control value of more than 50%) |  |  |  |  |  |  |
| CCc1c(-c2ccccc2)n(-c2cccc(OC)c2C)cc(Br)c1=O [Compound 562] |  |  |  |  |  | L (L shows the control value of 50% or less) | H (H shows the control value of more than 50%) | H (H shows the control value of more than 50%) | L (L shows the control value of 50% or less) | H (H shows the control value of more than 50%) |  |
| O=c1c(Br)cn(-c2ccccc2C(F)(F)F)c(-c2c(F)cc(F)cc2F)c1Cl [Compound 192] |  |  |  |  |  |  |  |  |  |  | Test D control value [1, 6]: L (L shows the control value of 50% or less); Test B control value [2, 7]: H (H shows the control value of more than 50%); Test E control value [3, 8]: H (H shows the control value of more than 50%); Test G control value ([4]; 250 ppm spray (2.5 ml/pot)): L (L shows the control value of 50% or less); Test C control value [5, 9]: H (H shows the control value of more than 50%) |
| Cc1c(Cl)cccc1-n1cc(C)c(=O)c(C)c1-c1c(F)cccc1F [Compound 494] |  |  |  |  |  | H (H shows the control value of more than 50%) | H (H shows the control value of more than 50%) | H (H shows the control value of more than 50%) | L (L shows the control value of 50% or less) | H (H shows the control value of more than 50%) |  |
